Results taken from patent publication US20240082393A1 (priority 2021, published 2024).

System: classical monocytes in PBMCs from healthy donors
From the text: Next, we determined whether there is a causal relationship between the observed reduction in H3K27ac histone acetylation and PADI4 levels, and the diminished cytokine production. […] Next, we asked whether inhibition of CBP/P300 and PADI4 has an impact on cytokine production.
Indeed, previous studies described a direct physical interaction and functional co-dependence between AP-1 and the histone acetyl transferases CBP/P300. To investigate whether AP-1 activity and histone acetylation are also functionally linked in classical monocytes, we conducted an ex-vivo stimulation experiment using the same specific inhibitors of histone acetylation and PADI activity as in FIG. 2. To gauge AP-1 activity, we used an intracellular antibody staining able to detect the activated, phosphorylated form of c-Jun.
In-vitro stimulation and intracellular flow cytometry experiments. Cryopreserved PBMCs were thawed, counted, and resuspended in RPMI 1640 (Corning, 10-040-CV) supplemented with 10% FBS (Corning, 35-011-CV) [complete media] at a concentration of 4×10^6 cells/mL. Next, 150 μL of cell suspension (6×10^5 cells) was added to each well of a 96-well round-bottomed tissue culture plate and mixed with 50 μL of inhibitor solution containing either Trichostatin A (TSA; CST, 9950S), A-485 (Tocris, 6387), or CI-Amidine (EMD Millipore, 506282) in complete media. After 2 h of incubation at 37 C and 5% CO2, the cells were stimulated by adding either LPS (0.025 μg/mL; Invivogen, tlrl-pb5lps) or R848 (4 μg/mL; Enzo Life Sciences, ALX-420-038-M005) to the cultures. After another 2 h of incubation, Brefeldin A (10 μg/mL; Sigma Aldrich, B7651-5MG) was added to all cultures and cells were incubated for a final 4 h. After a total of 8 h of incubation, cells were washed twice with 150 μL PBS (GE Life Sciences, SH30256.LS) and stained for viability using 100 μL of Zombie UV Fixable Viability Dye in PBS (1:1000; Biolegend, 423108). […] Data was analyzed using Flowjo X software (BD). […]

Substance	c-Jun activation (phospho-c-Jun)	frequency of IL-1b and TNFα positive monocytes / cytokine production	global histone H3K27ac levels in classical monocytes
CI-Amidine	abolished c-Jun activation completely	complete abrogation	
trichostatin A [TSA]			concentration-dependent increase
